# Experimental data from the supplement of paper PMC12217912.
# This is one part of the list. The full chains were built here from the parent and the listed change. Inactive controls read about 0.05.
# B1: TEV protease; numbered along this chain (parent)
# chain: MGESLFKGPRDYNPISSSICHLTNESDGHTTSLYGIGFGPFIITNKHLFRRNNGTLVVQSLHGVFKVKDTTTLQQHLVDGRDMIIIRMPKDFPPFPQKLKFREPQREERICLVTTNFQTKSMSSMVSDTSCTFPSGDGIFWKHWIQTKDGQCGSPLVSTRDGFIVGIHSASNFTNTNNYFTSVPKNFMELLTNQEAQQWVSGWRLNADSVLWGGHKVFMVKPEEPFQPVKEATQL
# Variants of: B1
# Experiment: raw area under fraction-flipped curve 0-4 h after induction (AUC4h, not background-subtracted), DNA-recorder readout of cleavage of the substrate (dimensionless); higher = more cleavage of the substrate by the protease variant
# Details: temperature: 34 °C; time window: 0-4 h after rhamnose induction
# Method: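 In vivo DNA recorder in E. coli TOP10(DE3) ΔrhaA at 34 °C. Each TEVp single-site mutant (parent TEVp 0) is paired with a single-site variant of the 7-mer TEVs (canonical ENLYFQ|S). The substrate sits between flexible linkers in a Bxb1-sfGFP-TEVs-SsrA fusion, so cleavage stabilises Bxb1 and speeds flipping of a recombination array, read by NGS. The value is the raw area under the fraction-flipped curve over 0-4 h after rhamnose induction (AUC4h), with ≥20 reads per time point. It is not background-subtracted; inactive controls average about 0.047.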
# 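Note: Bxb1 expression induced with 0.2% (w/v) L-rhamnose at OD600 near 0.5, cultures sampled hourly, flipped fraction per protease–substrate barcode pair counted by paired-end Illumina sequencing.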
Variant,area with substrate CNLYFQS,area with substrate DNLYFQS,area with substrate GNLYFQS,area with substrate INLYFQS,area with substrate KNLYFQS,area with substrate LNLYFQS,area with substrate MNLYFQS,area with substrate NNLYFQS,area with substrate PNLYFQS,area with substrate SNLYFQS,area with substrate TNLYFQS,area with substrate WNLYFQS,area with substrate HNLYFQS,area with substrate QNLYFQS,area with substrate VNLYFQS,area with substrate YNLYFQS,area with substrate FNLYFQS,area with substrate RNLYFQS
I84A,0.0554,0.0744,0.0624,0.0608,0.0752,0.0741,0.0741,0.0477,0.0667,0.0589,0.0688,0.0557,,,,,,
I84S,0.0378,0.0519,0.0422,0.0491,0.0658,0.0523,0.0785,0.0623,0.0578,,,0.0525,0.066,0.0747,0.0545,0.0649,,
I85T,0.0593,0.0899,0.0582,0.0547,,,,,0.0462,0.0533,0.0496,0.041,,,0.0661,0.0545,0.0473,0.0311
I85Y,0.0625,0.0521,0.0671,,0.0733,0.0555,0.0524,0.0573,0.0538,,0.0581,0.0538,,,0.0678,0.0432,,0.0497
R87H,0.0845,0.0679,,,0.0594,0.0687,0.059,0.0441,,0.063,0.0732,,0.0472,0.0712,,0.0466,,0.0461
P89L,0.0674,0.0667,0.0445,0.0703,,0.0582,,0.0524,0.0566,,,,,,0.0567,0.0604,,0.0683
P89Y,0.0692,0.0673,0.063,0.0502,0.054,0.0572,0.0422,,0.0529,0.0508,0.0549,0.0412,0.0574,0.0517,,0.0409,,
K90G,0.0716,0.086,,0.088,,,0.0615,,0.0557,0.0469,,,0.0391,,,,,
K90H,0.0697,0.0719,0.0641,0.0595,0.0501,0.0648,0.0896,0.0583,0.0712,0.078,0.0675,0.0576,0.0609,,0.0644,0.0675,,
K90V,0.0829,0.0616,,,,,0.0641,,0.0625,,0.0604,0.0736,0.0613,,,0.0727,,
P94A,0.066,0.0775,,,0.0618,,0.138,,,0.0579,0.0629,,0.0696,,,0.0558,,
P94T,0.0681,0.0728,,,0.0796,,0.068,0.0681,0.0728,,0.0688,,,,0.0783,0.0551,,0.073
P94W,0.0706,0.082,,,0.0682,0.0617,,,0.0575,,0.067,0.0648,0.0724,,,,0.0712,
F95A,0.0592,0.009,,0.0668,,0.0695,,0.0677,0.072,0.0111,,,0.0596,,,0.0496,0.0602,
F95H,0.0654,0.0825,0.0785,0.0482,0.0726,0.052,,0.0552,0.0576,0.0671,0.0648,0.0587,0.0648,,,,0.0783,
